Reference: PubChem BioAssay AID504706 (National Center for Advancing Translational Sciences (NCATS), 2011)
The campaign covered roughly 320,000 compounds. About 200 (0.062%) were called active. The shares of active, inactive and inconclusive entries below differ from those in the screen. Calls follow the shape of the dose curve; as a rule, active = well fitted activation curve with a large enough effect; inconclusive = small, poorly fitted or top-dose-only effect; inactive = no such curve, though single readings can be large or run the other way. Potencies of inconclusive entries are left out as doubtful fits.

test: qHTS assay for re-activators of p53 using a Luc reporter; conditions: H1299 p53-A138V BP100-luciferase reporter, luminescence, 24 h; series mostly up to 92.2 µM; also: nearly all actives have a fitted effect of over 45% in size
Procedure, shortened: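 H1299 (p53-null), stable ts p53-A138V + BP100-Luc; 1000 cells/well, Opti-MEM/10% FBS; cpd 4 pt, 1:5; 24 h, 37 deg C, 5% CO2; detection reagent 10 min RT; luminescence.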
Potency is read from the fitted curve at half-maximal effect; tags tell the direction and shape of the fitted curve.

SMILES	Potency
Cc1ccc(OCCCSc2ncccn2)cc1C	inconclusive [activator, partial curve, poor fit]
O=C(NCCc1ccccn1)c1ccc(OC2CCN(CCc3ccccc3)CC2)cc1	inconclusive [activator, full curve, poor fit]
O=C(N=C1c2ccccc2CN1c1ccc(F)c(Cl)c1)c1cccnc1Cl	inconclusive [activator, partial curve, poor fit]
Cc1ccn2c(-c3n[nH]c(=S)n3C)c(C)nc2c1	inconclusive [activator, partial curve, poor fit]
Cc1ccc(NC(=O)Nc2ccc3c(c2)OCO3)cc1F	inconclusive [activator, partial curve, poor fit]
CCN(CC)C(=O)CSC(=Nc1ccccc1F)NC#N	inconclusive [activator, partial curve, poor fit]
O=C(COc1ccccc1C(=O)c1cnn(-c2ccccc2)c1)Nc1ccccc1	inconclusive [activator, partial curve, poor fit]
CN(C)C(=O)c1ccc(NC(=O)COC(=O)C2(c3ccccc3)CCCC2)cc1	inactive
CC1CCN(C(=O)/C=C/c2ccc(C(C)(C)C)cc2)CC1	inconclusive [activator, partial curve, poor fit]
O=C(CCN1CCc2ccccc21)c1ccc2c(c1)OCCO2	inactive
Cc1ccc(C)c(-n2c(-c3cccnc3)n[nH]c2=S)c1	inactive
Nc1ccc(NC(=O)CCN2CCOCC2)cc1	inconclusive [activator, single point]
O=C(Cc1ccccn1)c1ccc(F)cc1	inconclusive [activator, single point]
Cn1c2ccccc2c(=O)c2ccc(NCCc3cccs3)cc21	inconclusive [activator, partial curve, poor fit]
Cc1ccn2cc(-c3cnoc3C)nc2c1	inconclusive [activator, partial curve, poor fit]
CCn1c(=O)c(C(=O)CN2c3ccccc3CC2C)c(N)n(Cc2ccccc2)c1=O (configuration not stated)	inconclusive [activator, partial curve, poor fit]
Cc1cc(N2CCCC2)ccc1NC(=O)COc1ccccc1	inactive
COc1ccc(-c2ccc(N)cn2)cn1	inconclusive [activator, full curve, poor fit]
C/C(=N\NS(=O)(=O)c1ccc(Cl)cc1)c1ccc(NC(=O)c2ccco2)cc1	inconclusive [activator, partial curve, poor fit]
O=C(NC(O)C(=O)c1ccc(F)cc1)c1ccc(F)cc1 (configuration not stated)	inconclusive [activator, partial curve, poor fit]
COc1ccc(CCC(C)NCC(C)c2ccccc2)cc1 (configuration not stated)	inconclusive [activator, full curve, poor fit]
COCCNC(=O)c1c(C)cc(C)cc1C	inconclusive [activator, partial curve, poor fit]
Cc1ccccc1CN1CCN(S(=O)(=O)c2ccc(Cl)s2)CC1	inactive

SMILES	Potency
N#C/C(=C\c1ccc(Cl)cc1)c1nc2ccccc2o1	inconclusive [activator, partial curve, poor fit]
Cc1ccc(NC(=O)C(=O)NC2CCCCC2)cc1	inconclusive [activator, partial curve, poor fit]
COc1ccc(/C=N/NC(=O)CC(=O)NCCc2ccccc2)cc1OC	inactive
CCCCCC(=O)N/N=C(\C)c1ccc(N2CCCCC2)cc1	inconclusive [activator, partial curve, poor fit]
O=C(Nc1nc(-c2ccc(F)cc2)cs1)C1CCCO1 (configuration not stated)	inconclusive [activator, partial curve, poor fit]
O=C(CCn1cccc1)NCc1ccccc1	inconclusive [activator, single point]
CC(Cc1ccccc1)NC(=S)CN1CCCC1=S (configuration not stated)	inactive
CC(=NC1CCCC1)c1c(C)[nH]n(-c2nc3ccccc3s2)c1=O	inconclusive [activator, partial curve, poor fit]
COc1ccc(-c2nn(C)c3sc(C(=O)NCCN(C)C)cc23)cc1OC	inactive
N#CCN1C(=S)N=C(Nc2cccc(Cl)c2)C12CCCCC2	inconclusive [activator, single point]
Cc1ccccc1-c1nnc(SCc2ccc(F)cc2)o1	inconclusive [activator, partial curve, poor fit]
CCOC(=O)C(C)CC(C)C(=O)N1CCOCCN(C(=O)C(C)CC(C)C(=O)OCC)CCOCC1 (configuration not stated)	inconclusive [activator, single point]
CCCN1C(=O)C(=O)N(CC(=O)c2cc(C)n(C3CC3)c2C)C1=O	inconclusive [activator, partial curve, poor fit]
CCOc1ccccc1C(=O)NCC(=O)NNC(=O)CN(C)S(=O)(=O)c1ccc(Cl)cc1	inactive
O=C(/C=C/c1ccc(O)cc1)c1ccc(NC2=C(N3CCCCC3)C(=O)c3ccccc3C2=O)cc1	inconclusive [activator, partial curve, poor fit]
COCCNC(=S)N1CCc2cc(OC)c(OC)cc2C1c1cccs1 (configuration not stated)	inactive
O=C(Nc1ccc(OC(F)F)c(Cl)c1)C(c1ccccc1)c1ccccc1	inconclusive [activator, partial curve, poor fit]
CCCC1CCc2c(sc(NC(=O)OCC)c2C#N)C1 (configuration not stated)	inconclusive [activator, single point]
COC(=O)c1sc(NC(=S)NC(=O)c2cccc(Br)c2)nc1C	inactive
COc1ccc(-c2cn3ccsc3n2)cc1	inconclusive [activator, partial curve, poor fit]
COc1ccc2cc3cc(C(=O)NC(C)C)oc3nc2c1	inconclusive [activator, partial curve, poor fit]
CCCCCc1nc2c(=O)[nH]c3ccccc3c2o1	inconclusive [activator, partial curve, poor fit]
O=C(COC(=O)c1ccc2c(c1)OCCO2)NCCc1ccccc1	inconclusive [activator, full curve, poor fit]

SMILES	Potency
Fc1ccccc1OCCSc1nnnn1-c1ccccc1	inconclusive [activator, partial curve, poor fit]
Nc1cc(N)nc(SCCOc2ccccc2F)n1	inconclusive [activator, partial curve, poor fit]
Cc1ccc(CNC(=O)Cc2ccc(-c3ccccc3)cc2)cc1	inactive
Nc1cc(Cl)ccc1Oc1ccc2ccccc2c1	inconclusive [activator, partial curve, poor fit]
Cc1cccc(CN2CCN(c3ncccn3)CC2)c1	inconclusive [activator, single point]
CC(=O)N/C(=C/c1ccccc1)C(=O)N1CCCCC1	inconclusive [activator, full curve, poor fit]
Cc1ccc(Sc2ncccc2C(=O)NCc2cc([N+](=O)[O-])ccc2O)c(C)c1	inconclusive [activator, partial curve, poor fit]
Cc1cc(C(=O)CSc2nnnn2C)c(C)n1C1CC1	inconclusive [activator, partial curve, poor fit]
O=C(Nc1ccc(NC(=O)c2ccccc2F)cc1)c1cccs1	inconclusive [activator, partial curve, poor fit]
COc1cc(C)nc(NC(=O)COc2ccc(Cl)cc2C)n1	inconclusive [activator, full curve, poor fit]
CS(=O)(=O)c1ccccc1C(=O)Nc1ccccc1Cc1ccccc1	inactive
CCc1c(C)sc(NC(=S)Nc2cccnc2)c1C(=O)OC	inactive
COC(=O)C1=C(CS(=O)(=O)c2cc(OC)ccc2OC)NC(=O)NC1c1ccc(O)c(OC)c1 (configuration not stated)	inactive
O=C(NC(=S)Nc1ccccc1N1CCOCC1)c1ccc([N+](=O)[O-])cc1	inactive
CCN1CCN(c2ccc(NC(=O)c3cnccn3)cc2)CC1	inconclusive [activator, full curve, poor fit]
COc1ccc(-c2cc(C(=O)NCCc3ccc(S(N)(=O)=O)cc3)c3ccccc3n2)cc1	inactive
Cc1cccc(-n2c(C)nc3cc(C(=O)N4CCOCC4)ccc32)c1	inconclusive [activator, single point]
Cc1ccc2oc(-c3ccccc3)nc2c1	inconclusive [activator, partial curve, poor fit]
O=[N+]([O-])c1ccc(Nc2ccc3ccccc3c2)nc1	inconclusive [activator, single point]
CCCCOc1ccc(C(=O)NCC(=O)NCC(c2ccc(OC)cc2)N2CCOCC2)cc1 (configuration not stated)	inconclusive [activator, partial curve, poor fit]
O=C(NCCCN1CCCC1=O)Nc1ccc(Cl)cc1Cl	inconclusive [activator, single point]
